Data taken from the supplement of paper PMC10126150.
Sequences with one replicate were seen in a single cluster, so their values are uncertain.

Tested on: ATP
Test: switch fluorescence ratio, 500 uM ATP over buffer (Cy3 cluster intensity, sum of 5 cycles each) (fold (ratio)); higher = stronger signal-on switching upon ATP binding; sequences stand for … in TCGTCGGCAGCGTCAGATGTGTATAAGAGACAGTTTTTTTTTTTTTTTTTTTTTTTTT…TC
Settings: aptamer strand: ATP DNA aptamer (quencher-CACCTGGGGGAGTATTGCGGAGGAAGG + anchor), 100 nM annealed; ATP concentration: 500 uM; one replicate
Outline: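 The quencher-labelled ATP aptamer, at 100 nM, was annealed to Cy3-labelled switching-strand clusters on a modified Illumina MiSeq flow-cell. The clusters were imaged in selection buffer, then after 15 min with 500 uM ATP at 22 °C, and this buffer/ATP cycle ran five times with NaOH stripping and re-annealing between runs. Per-cluster fluorescence ratios, summed target-cycle over summed buffer-cycle Cy3 intensity, were averaged per switch-domain sequence. Clusters outside 100-1000 RFU were excluded.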
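Further: ATP exposure 15 min at 22 °C before imaging.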

Sequence: GGACAACACA
- switch fluorescence ratio: 1.1

Sequence: ATGGCGGACC
- switch fluorescence ratio: 0.983

Sequence: TGGGTCGTGT
- switch fluorescence ratio: 1.04

Sequence: CGGTTGGTGC
- switch fluorescence ratio: 1.1

Sequence: AGGGTCTGT
- switch fluorescence ratio: 0.976

Sequence: TTGCACTATC
- switch fluorescence ratio: 1.08

Sequence: AGATCCGCGG
- switch fluorescence ratio: 0.997

Sequence: GGATTTGTAG
- switch fluorescence ratio: 0.978

Sequence: AAGAGTACTT
- switch fluorescence ratio: 1.04

Sequence: CCAGCAGTCA
- switch fluorescence ratio: 1.13

Sequence: GATTGGAAAT
- switch fluorescence ratio: 1.05

Sequence: CTCCCTATTG
- switch fluorescence ratio: 1

Sequence: AGAATGGCTC
- switch fluorescence ratio: 0.967

Sequence: CATAGGCT
- switch fluorescence ratio: 1.01

Sequence: ATGCGCAACT
- switch fluorescence ratio: 1.17

Sequence: TAACGTCGGT
- switch fluorescence ratio: 0.99

Sequence: TTCCCACAAA
- switch fluorescence ratio: 0.997

Sequence: CGGAAAATAT
- switch fluorescence ratio: 0.976

Sequence: TCTCGTTGCG
- switch fluorescence ratio: 1

Sequence: TCACAGCCCT
- switch fluorescence ratio: 1.05

Sequence: ATCGCTTTGA
- switch fluorescence ratio: 0.998

Sequence: ACTATCCGCA
- switch fluorescence ratio: 1.18

Sequence: GGGAATGGCC
- switch fluorescence ratio: 1.04

Sequence: ACTTCTAAAA
- switch fluorescence ratio: 1.07

Sequence: AACAGGTGCG
- switch fluorescence ratio: 1.32

Sequence: AAACGGGTGT
- switch fluorescence ratio: 1.11

Sequence: TGAATGCCCT
- switch fluorescence ratio: 0.935

Sequence: AGTGACTCAT
- switch fluorescence ratio: 1.04

Sequence: TCCAGTCGCT
- switch fluorescence ratio: 1.1

Sequence: GCGACTATTG
- switch fluorescence ratio: 0.976

Sequence: GACTACACTT
- switch fluorescence ratio: 1.25

Sequence: ACAGTCCTTG
- switch fluorescence ratio: 1.01

Sequence: AACCCGTTTG
- switch fluorescence ratio: 0.976

Sequence: CGCCATTTTA
- switch fluorescence ratio: 0.982

Sequence: CGGGTGGCA
- switch fluorescence ratio: 0.987

Sequence: TTCAGAAGCT
- switch fluorescence ratio: 1.12

Sequence: AGTGGTATTA
- switch fluorescence ratio: 0.986

Sequence: CCAGGGCG
- switch fluorescence ratio: 1.02

Sequence: TGGGATTATA
- switch fluorescence ratio: 0.972

Sequence: GATTGTCCTG
- switch fluorescence ratio: 1.04

Sequence: GCAAGCGTGT
- switch fluorescence ratio: 1.03

Sequence: GCGCGACTAA
- switch fluorescence ratio: 1.26

Sequence: CGGTTGCAGG
- switch fluorescence ratio: 1.04

Sequence: GTAATTATGA
- switch fluorescence ratio: 0.978

Sequence: CAGGGTCTGT
- switch fluorescence ratio: 1.03

Sequence: AGGAACTTGC
- switch fluorescence ratio: 1.37

Sequence: GACTCACATG
- switch fluorescence ratio: 1.06

Sequence: ATAAGTGAGC
- switch fluorescence ratio: 0.994

Sequence: GGGTGCTTTA
- switch fluorescence ratio: 0.996

Sequence: CTCACAAGGT
- switch fluorescence ratio: 1.11

Sequence: TAATATAAC
- switch fluorescence ratio: 0.987

Sequence: TAGACGGTCT
- switch fluorescence ratio: 1.05

Sequence: CATAGACAAT
- switch fluorescence ratio: 1.07

Sequence: AGATACGTGA
- switch fluorescence ratio: 0.988

Sequence: CTCAGACACG
- switch fluorescence ratio: 1.05

Sequence: TTGCCTAGGG
- switch fluorescence ratio: 0.968

Sequence: TGTGTGAGTC
- switch fluorescence ratio: 1.07

Sequence: TGAAATTCGC
- switch fluorescence ratio: 1

Sequence: ACACCGGTCG
- switch fluorescence ratio: 0.992

Sequence: ACTCAGAAGA
- switch fluorescence ratio: 1.04

Sequence: TAGGAGTTTT
- switch fluorescence ratio: 1.01

Sequence: GATTAACAGG
- switch fluorescence ratio: 1.07

Sequence: GGTTAACGCC
- switch fluorescence ratio: 0.909

Sequence: CCATTAAAAA
- switch fluorescence ratio: 0.947

Sequence: GCTATTGAGG
- switch fluorescence ratio: 0.994

Sequence: CAGCTCGTGG
- switch fluorescence ratio: 0.945

Sequence: TGACAAGAAA
- switch fluorescence ratio: 1.08

Sequence: TTAGTTTTAA
- switch fluorescence ratio: 0.982

Sequence: TTAAGCTTAC
- switch fluorescence ratio: 2.02

Sequence: TAACCTATC
- switch fluorescence ratio: 1.19

Sequence: TCTTTGCGGA
- switch fluorescence ratio: 1.01

Sequence: ATTCCTCT
- switch fluorescence ratio: 1.05

Sequence: AACAAAGGT
- switch fluorescence ratio: 0.996

Sequence: CCCAAGTA
- switch fluorescence ratio: 1.02

Sequence: AGCATAAATT
- switch fluorescence ratio: 0.972

Sequence: AACCATAATG
- switch fluorescence ratio: 1

Sequence: ACATCGTGGC
- switch fluorescence ratio: 0.985

Sequence: TCGCTTAAGT
- switch fluorescence ratio: 1

Sequence: CAGTTAAGAA
- switch fluorescence ratio: 0.99

Sequence: GTCGGAGGGA
- switch fluorescence ratio: 0.975

Sequence: CGTGAGCGTC
- switch fluorescence ratio: 1.01

Sequence: TGGGGTTAG
- switch fluorescence ratio: 0.994

Sequence: TTACTGAGGC
- switch fluorescence ratio: 1.01

Sequence: GGAGTACTTT
- switch fluorescence ratio: 0.985

Sequence: TCTATTGGGT
- switch fluorescence ratio: 1.02

Sequence: TTCCCGTAGC
- switch fluorescence ratio: 1.19

Sequence: GTTTTCAGTC
- switch fluorescence ratio: 0.991

Sequence: AGCCTCCCGT
- switch fluorescence ratio: 1.2

Sequence: TGTCGTGCCA
- switch fluorescence ratio: 0.995

Sequence: GGGCTCAGGT
- switch fluorescence ratio: 1.1

Sequence: GTCGAAACCC
- switch fluorescence ratio: 1.04

Sequence: TTTACATACA
- switch fluorescence ratio: 1.22

Sequence: GTCAGGGT
- switch fluorescence ratio: 0.989

Sequence: GAGTAAATTA
- switch fluorescence ratio: 0.955

Sequence: TCCGGCTTTA
- switch fluorescence ratio: 1.09

Sequence: AATAGGCCTG
- switch fluorescence ratio: 0.951

Sequence: ATAGAATGAG
- switch fluorescence ratio: 1.05

Sequence: TCCCAAAGGA
- switch fluorescence ratio: 0.982

Sequence: CGAAAAAACC
- switch fluorescence ratio: 1.04

Sequence: TAGCCCTATT
- switch fluorescence ratio: 1.01

Sequence: TTCATGGTTC
- switch fluorescence ratio: 1.01

Sequence: GGCCAAAACT
- switch fluorescence ratio: 1.01

Sequence: AACGTTCTGG
- switch fluorescence ratio: 0.977

Sequence: AGATACAC
- switch fluorescence ratio: 1.05

Sequence: GCCCTTTGGG
- switch fluorescence ratio: 1.02

Sequence: AAGGAGATAG
- switch fluorescence ratio: 1.01

Sequence: CGCGTGAACT
- switch fluorescence ratio: 1.01

Sequence: GAAGATAGTC
- switch fluorescence ratio: 1.09

Sequence: AGTCAATTCG
- switch fluorescence ratio: 1

Sequence: TCGTTGGTAC
- switch fluorescence ratio: 1.24

Sequence: GTCGGTAACG
- switch fluorescence ratio: 1.05

Sequence: TGTCGGTCTT
- switch fluorescence ratio: 1.26

Sequence: AGGGTCCTGG
- switch fluorescence ratio: 0.964

Sequence: TTCTGTTACC
- switch fluorescence ratio: 0.972

Sequence: AGATTAGTCG
- switch fluorescence ratio: 0.93

Sequence: CTTATGGTCT
- switch fluorescence ratio: 1.01

Sequence: GCTAGCGGCG
- switch fluorescence ratio: 1.04

Sequence: TAGTACGGCC
- switch fluorescence ratio: 1.15

Sequence: GTCGTAAAGT
- switch fluorescence ratio: 0.997

Sequence: AGGTATTTTG
- switch fluorescence ratio: 0.955

Sequence: GGTTGGGGCG
- switch fluorescence ratio: 0.983

Sequence: ACTACCGATC
- switch fluorescence ratio: 1.45

Sequence: GTACTGAAGA
- switch fluorescence ratio: 1.01

Sequence: ACTAAGTGTA
- switch fluorescence ratio: 0.97

Sequence: GGATTATGGT
- switch fluorescence ratio: 0.978

Sequence: TGCTGTGTTA
- switch fluorescence ratio: 0.995

Sequence: ACATAATCGA
- switch fluorescence ratio: 1.04

Sequence: AGAAAATCTG
- switch fluorescence ratio: 1.03

Sequence: AGTAGTTGAC
- switch fluorescence ratio: 0.994

Sequence: TGCTGCGCGG
- switch fluorescence ratio: 1.06

Sequence: ACCTGAACAT
- switch fluorescence ratio: 1.04

Sequence: AGGTACCCCG
- switch fluorescence ratio: 1.01

Sequence: TTAGGGTTT
- switch fluorescence ratio: 0.987

Sequence: AGTTTGATCA
- switch fluorescence ratio: 0.965

Sequence: TCTCGGCAAT
- switch fluorescence ratio: 4

Sequence: AGGTCTCCAT
- switch fluorescence ratio: 0.999

Sequence: TGTCGGGGCG
- switch fluorescence ratio: 0.973

Sequence: TTGAATCTGT
- switch fluorescence ratio: 0.982

Sequence: AAGTACCAGT
- switch fluorescence ratio: 1.02

Sequence: CGCGATGTTG
- switch fluorescence ratio: 1.02

Sequence: GGCCCTTGTT
- switch fluorescence ratio: 1.02

Sequence: CATCCTTGTG
- switch fluorescence ratio: 1.04

Sequence: AGCGTTTGCT
- switch fluorescence ratio: 0.962

Sequence: AATTAGTAAT
- switch fluorescence ratio: 1.03

Sequence: GATATTGAGA
- switch fluorescence ratio: 1.02

Sequence: ATTTCTTCT
- switch fluorescence ratio: 1.04

Sequence: AAGGAGGATA
- switch fluorescence ratio: 1

Sequence: TAGGAACACA
- switch fluorescence ratio: 1.02

Sequence: GGATGACAAG
- switch fluorescence ratio: 1.05

Sequence: GCTAGCATGG
- switch fluorescence ratio: 1.04

Sequence: TATGGTTAGA
- switch fluorescence ratio: 1.02

Sequence: TGGCCGAGGG
- switch fluorescence ratio: 0.991

Sequence: TTAAAGCGCT
- switch fluorescence ratio: 0.997

Sequence: AAATACTCAA
- switch fluorescence ratio: 1.1

Sequence: TGCATTGGAA
- switch fluorescence ratio: 0.999

Sequence: ATTGGGGC
- switch fluorescence ratio: 1.03

Sequence: GCCGTCTTTT
- switch fluorescence ratio: 0.985

Sequence: TAAAGCCCAC
- switch fluorescence ratio: 1.01
